Source: the RNAGym collection of RNA variant scans (doi:10.1073/pnas.2313332121)
Variants at the floor of the assay are shown more often than the library holds them.

B1: TPR 5TU (parent)
chain: GGAUCUUCUCGAUCUAACAAAAAAGACAAAUCUGCCACAAAGCUUGAGAGCAUCUUCGGAUGCAGAGGCGGCAGCCUUCGGUGGCGCGAUAGCGCCAACGUUCUCAACUAUGACACGCAAAACGCGUGCUCCGUUGAAUGGAGUUUAUCAUG

Variants of: B1
Assay: polymerase ribozyme fitness, log enrichment relative to wild type (log ratio); higher = more active; in vitro selection for triplet polymerase activity
Procedure, shortened: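 Mutant libraries of each subunit of a heterodimeric triplet polymerase ribozyme were built by PCR and transcribed. Each library went through one round of in vitro selection in triplicate: annealing with biotinylated primer, partner subunit and triplets, frozen incubation at −7 °C, gel excision of extended constructs, streptavidin-bead capture and RT-PCR. Input and output libraries were Illumina-sequenced; only genotypes with ≥10 input reads and ≥1 read per output were kept. Fitness is log2(genotype enrichment/wild-type enrichment), using inverse-variance-weighted replicate averages.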

Variant	polymerase ribozyme fitness (log ratio)
GGAUCUUCUCGAUCUAACAAAAAAGACAAAUCUGCCACAAAGCUUGAGAGCGUCUUCGGAUGCAGAGGCGGCAGCCUUCGGUGGCGCGAUAGCGCCAACGUUCUCAACUAUGACACGCAAAACGCGUGCUCCGUUGAAUGGAGUUUAUCAUG [A52G]	-0.491
GGAUCUUCUCGAUCUAACAAAAAAGACAAAUCUGCCACAAAGCUUGAGAGCCUCUACGGAUGCAGAGGCGGCAGCCUUCGGUGGCGCGAUAGCGCCAACGUUCUCAACUACGACACGCAAAACGCGUGCUCCGUUGAAUGGAGUUUAUCAUG [A52C U56A U111C]	≤ -4.2
GGAUCUUCUCGAUCUAACAAAAAAGACAAAUCUGCCACAAAGCUUGAGAGCCUCUUCGGAUGCAGAGGCGGCAGCCUUCGGUGGCGCGAUAGCACCAACGUUCUCAACUAUGACACGCACAACGUGAUCUCCGUUGAAUGGAGUUUAUCAUG [A52C G94A A120C C125U U127A G128U]	≤ -4.2
GGAUCUUCUCGAUCUAACAAAAAAGACAAAUCUGCCACAAAGCUUGAGAGCGUCUUCGGAUGCAGAGGCGGCUGCCUUCGGUGGCGCGAUAGCGCCAACGUUCUCAACUACGAUACGCAAAACGCGUGCUCCGUUGAAUGGAGUUUAUCAUG [A52G A73U U111C C114U]	≤ -4.2
GGAUCUUCUCGAUCUAACAAAAAAGACAAAUCUGCCACAAAGCUUGAGAGCCACUUCGGAUGCAGAAGCGGCAGCCUUCGGUGGGGCAAUAGCGCCAACGUUCUUAACUAUGACACGCAAGACGCGUGCUCCGUGGAAUGGAGUUUAUCAUG [A52C U53A G67A C85G G88A C105U A121G U135G]	≤ -4.2
GGAUCUUCUCGAUCUAACAAAAAAGACAAAUCUGCCACAAAGCUUGAGAGCCUCUUCGGAUGCAGAGGCGGCAGCCUUCGGUGGCCCGAUAGCGCCAACGUUCUCAACUAUGUCACGCAAAACGCUUGCUCCGGUGAAUGGAGUUUAUCAUG [A52C G86C A113U G126U U134G]	≤ -4.2
GGAUCUUCUCGAUCUAACAAAAAAGACAAAUCUGCCACAAAGCUUGAGAGCCUCUUCGGAUGCAGAGGCGGCAGCCUUCGGUGACGCGAUAGCGCCAACGUUCUCAGCUAUGACACGCAAAACGCGUGCUCCGUUGAAUCGAGUUUAUCAUG [A52C G84A A107G G140C]	≤ -4.2
GGAUCUUCUCGAUCUAACAAAAAAGACAAAUCUGCCACAAAGCUUGAGAGCCUCGUCGGAUGCAGCGGCGGCAGCCUUCGGUGGGGCGAUAGCGCCAACGUUCUCAACUAUGACACGCAAAACGCGUGCUGCGAUGAAUGGAGUUUAUCAUG [A52C U55G A66C C85G C131G U134A]	≤ -4.2
GGAUCUUCUCGAUCUAACAAAAAAGACAAAUCUGCCACAAAGCUUGAGAGCCUCUUCGGAUGCAGAGGCGGCAGCCUUCGGUGACGCGAUAGCGCCAACGUUCUCAACUAUGACACGCAAAACGCGUGCCCCGUUGAAUGGAGUUUAUCAUG [A52C G84A U130C]	-0.715
GGAUCUUCUCGAUCUAACAAAAAAGACAAAUCUGCCACAAAGCUUGAGAGCCUCUACGGAUGCAGAGCCGGCAGCCUUCGGUAGCGCGAUAGCGCCAACGUUCUCAACUAUGACACGCAAAACGCGUGCUCCGUUGAAUGGAGUUUAUCAUG [A52C U56A G68C G83A]	≤ -4.2
GGAUCUUCUCGAUCUAACAAAAAAGACAAAUCUGCCACAAAGCUUGAGAGCCUCUUCGGAUGCAGAGGCGGCAGCCUUCGGUGGCGCUAUAGCGCCAACGUUCUCAACUAUGACACGCAAAACGCGUGCUCCGUUGAAUGGAGUUUAUCAUG [A52C G88U]	≤ -4.2
GGAUCUUCUCGAUCUAACAAAAAAGACAAAUCUGCCACAAAGCUUGAGAGCGUCUUCGGAUGCAGAGGCGGCAGCCUUCGGUGGCGCGAUUGCGCCAACGUUCCCAACUAUGACACGCAAAACGCGUGCUCCGUUGAAUGGAGUUUAUCAUG [A52G A91U U104C]	≤ -4.2
GGAUCUUCUCGAUCUAACAAAAAAGACAAAUCUGCCACAAAGCUUGAGAGCCUCGUCGGAUGCAGAGGCGGCAGCCUUUGGUGGUGCGAUGGCGCCAACGUUCUCAACUAUGAUACGCAAAACGCGUGCUCCGUUGAAUGGAGUUUAUCAUG [A52C U55G C79U C85U A91G C114U]	≤ -4.2
GGAUCUUCUCGAUCUAACAAAAAAGACAAAUCUGCCACAAAGCUUGAGAGCCUCUUCGGAUGCAGAGGCGGCAGCCUUCGGUUGCGCGAUAGCGCCAACGUUCUCAACUAUCACACGCAAAACGCGUGCUCCGUUGAAUGGAGUUUAUCAUG [A52C G83U G112C]	≤ -4.2
GGAUCUUCUCGAUCUAACAAAAAAGACAAAUCUGCCACAAAGCUUGAGAGCGUCUUCGGAUGCAGCGGAGGCAGCCUUCGGUGGCGCGAUAGAGCCAUCGUUCUCAACUAUGACACGGAAAACGCGUGCUCCGUUGAAGGGAGUUUAUCAUG [A52G A66C C69A C93A A98U C118G U139G]	≤ -4.2
GGAUCUUCUCGAUCUAACAAAAAAGACAAAUCUGCCACAAAGCUUGAGAGCCUCUACGGAUGCAGAGGCGGCAGCCUUCGGUGGCGCGAUAGCGCAAACGUUCUCAACUGUGACACGCAAAACGCGUGCUCCGUUGAAUGGAGUUUAUCAUG [A52C U56A C96A A110G]	-3.99
GGAUCUUCUCGAUCUAACAAAAAAGACAAAUCUGCCACAAAGCUUGAGAGCGUCUUCGGCUGCAGAGGCGGCAGCCUUCGGUGGCGCGAUAGCGUUUACGUUCUCAACUAUGACACGCAAAACGCGUGCUCCGUUGAAUGGAGUUUAUCAUG [A52G A60C C95U C96U A97U]	≤ -4.2
GGAUCUUCUCGAUCUAACAAAAAAGACAAAUCUGCCACAAAGCUUGAGAGCGUCUUCGGUUGCAGAGGCGACAGCCUUCGGUGGCGCGAUAGCGCCAACGUUCUCAACUAUGACACGCAAUACGCGUGCUCCGUGGAAUGGAGUUUAACAUG [A52G A60U G71A A121U U135G U148A]	-4.18
GGAUCUUCUCGAUCUAACAAAAAAGACAAAUCUGCCACAAAGCUUGAGAGCCUCUUCGGAUGCAGAGGCGGCAGCCUUCGGUCGCGCGAUAGCGCCAACGUUCUCAAGUAUGACACGCAAAACGCGUGCUCCGUUGAAUGGAGUUUAUUAUG [A52C G83C C108G C149U]	≤ -4.2
